Assay results: the supplement of paper PMC10300432
Recombinant human monoclonal antibodies (heavy:light variable regions). ELISA EC50 on the named antigen, from 10 µg/ml down; IC50 against spike pseudovirus on HT1080-ACE2 cells, 48 h; lower = stronger. Calls: IC50 above 1,000 ng/ml = non-neutralizing; EC50 above 1,000 ng/ml = non-binder.

Key:
[1] = biological target: SARS-CoV-2 Omicron BA.1 spike pseudovirus; assay: pseudovirus neutralization IC50; higher = weaker neutralization
Experimental: (§1)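 Single-round luciferase reporter pseudovirus mixed with antibody dilutions and put on HT1080-ACE2 clone 14 cells for 48 h; signal relative to no-antibody wells, four-parameter fit.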

[2] = biological target: SARS-CoV-2 Omicron BA.4/5 spike pseudovirus; assay: as above
Experimental: as §1

[3] = biological target: SARS-CoV-2 Wuhan-Hu-1 spike pseudovirus; assay: as above
Experimental: as §1

[4] = biological target: SARS-CoV-2 Wuhan-Hu-1 spike receptor-binding domain; assay: ELISA binding EC50; higher = weaker binding; ELISA of recombinant human antibody on coated antigen, from 10 µg/ml in fourfold dilutions; four-parameter fit.

B1: C5073 (protein)
chain 1: QVQLVQSGAEVKKPGSSVKVSCKASGGAFINYIITWMRQAPGQGLEWMGGIIPAFGAAVYAQKFQGRVSITADESTGTAYMDLGSLRSEDTALYYCASPGPKPYCSGGSCYRYYFNYWGQGTLVTVSS
chain 2: EIVLTQSPGTLSLSPGERATLSCRASEIVSSSSLAWYQQRPGQAPRLLMYGASSRATGIPDRFSGSGSGTDFTLTISRLEPEDFAVYYCQQYGSWITFGQGTRLEIK
pseudovirus neutralization IC50 [1]: > 1 µg/mL | pseudovirus neutralization IC50 [2]: > 1 µg/mL | pseudovirus neutralization IC50 [3]: > 1 µg/mL | ELISA binding EC50 [4]: 0.00711 µg/mL

B2: C5074 (protein)
chain 1: QVQLVESGGGVVQPGRSLRLSCATSGFTFRNYGMHWVRQAPGKGLEWVAVISYDGSTKYNVDSVKGRFTISRDNSKNTVYLQMNSLRAEDTAVYYCAKNGGGEYCSGGNCYSGYFDYWGQGTLVTVSS
chain 2: DIQMTQSPSSLSASVGDRVTITCQASQDISNSLNWYQQKPGKAPKLLIYDASNLETGVPSRFSGSGSGADFTFTISSLQPEDIATYYCQQYDSLPVTFAQGTKLEIK
pseudovirus neutralization IC50 [1]: > 1 µg/mL | pseudovirus neutralization IC50 [2]: > 1 µg/mL | pseudovirus neutralization IC50 [3]: > 1 µg/mL | ELISA binding EC50 [4]: 0.00713 µg/mL

B3: C5075 (protein)
chain 1: EVQLVESGGGLVKPGGSLTLPCTASGFSFSDAWMSWVRQAPGKGLEWVGRIKSKIDGGPTEYAAPVKGRFTISRDDSKNTLFLQMNSLKTEDTAVYYCTTEAVVSSWGAFDFWGQGTMVTVSS
chain 2: EIVLTQSPATLSLSPGERATLSCRASQSVSSNYLSWYQQKPGQAPRLLIYGASTRATGIPARFSGSGSGTDFTLTISSLQPEDFAVYYCQQDYNLPITFGQGTRLEIK
pseudovirus neutralization IC50 [1]: 0.172 µg/mL | pseudovirus neutralization IC50 [2]: 0.404 µg/mL | pseudovirus neutralization IC50 [3]: 0.427 µg/mL | ELISA binding EC50 [4]: 0.00361 µg/mL

B4: C5077 (protein)
chain 1: QVQLVQSGAEVKKPGASVKVSCKASNYPFTFYGISWVRQAPGQGLEWMGWISAKNGNTNYAQNFQGRVTVTTDTSTSTAYMELKSLTSDDTAVYYCARDFFGDGYNPLPYFDRWGQGTLVTVSS
chain 2: QSVLTQPPSASGTPGQRVTISCSGSTSNIGSNTVNWYQQLPGAAPKLLIYGDYQRPSGVPDRFSGSKSGTSASLAISGLQSEDEADYYCASWDDNFNGWLFGGGTKLTVL
pseudovirus neutralization IC50 [1]: 0.00499 µg/mL | pseudovirus neutralization IC50 [2]: > 1 µg/mL | pseudovirus neutralization IC50 [3]: 0.00519 µg/mL | ELISA binding EC50 [4]: 0.00368 µg/mL

B5: C5078 (protein)
chain 1: EVQLVQSGAEVKKPGESLKISCKVSGYSFTYYWIAWVRQMPGKGLEWMGIIYPGDSDTRYSPSFQGQVTISGDKSISTAYLEWSSLEASDTAIYYCARRSQTVGYFDYWGQGTLVTVSS
chain 2: SYELTQPPSVSVAPGKTASISCGGANIGTKHVHWYQQQPGQAPVVVISFDTDRPSGIPERFSGSKSGNTATLTISRVEAGDEADYFCQVWDSNSEHYVFGTGIKVTV
pseudovirus neutralization IC50 [1]: 0.102 µg/mL | pseudovirus neutralization IC50 [2]: 0.0962 µg/mL | pseudovirus neutralization IC50 [3]: 0.111 µg/mL | ELISA binding EC50 [4]: 0.00242 µg/mL

B6: C5079 (protein)
chain 1: EVQLLESGGGLVQPGGSLRLSCVASGFTFSTSAMSWVRQSPGKGLEWVSAITNSGGGAFYTDSVKGRFTISRDNSKNTLYLQMNSLRAEDTAIYYCAREAMGPTMFFDYWGQGTLVTVSS
chain 2: DIQMTQSPSSLSASVGDRVTITCRASQSISRFLNWYQQKPGKAPKLLIYDASSLQSGVPSRFRGSGSGTDFTLTISSLQPEDFATYYCQQSYSSPPITFGQGTRLEIK
pseudovirus neutralization IC50 [1]: > 1 µg/mL | pseudovirus neutralization IC50 [2]: > 1 µg/mL | pseudovirus neutralization IC50 [3]: 0.555 µg/mL | ELISA binding EC50 [4]: 0.00486 µg/mL

B7: C5080 (protein)
chain 1: QVQLVQSGAEVKKPGSSVKVSCKASGGPFSNYPFSWVRQAPGQGLEWMGRIIPALGVTNYAQKFQGRVTITADRSTRTGYMELSSLRSEDTAVYYCARTLGYSDYGASYYFDYWGQGTLVTVSS
chain 2: QSVLTQPPSVSGAPGQRVTISCTGGNSNIAAGYDVHWYQQLPGTAPKLLIYRNTNRPSGVPDRFSGSKSDTSASLAITGLQAEDEADYYCQSYDSSLSGEVFGTGTKVTVL
pseudovirus neutralization IC50 [1]: 0.132 µg/mL | pseudovirus neutralization IC50 [2]: > 1 µg/mL | pseudovirus neutralization IC50 [3]: 0.0563 µg/mL | ELISA binding EC50 [4]: 0.00356 µg/mL

B8: C5081 (protein)
chain 1: QVQLVQSGAEVKKPGSSVTVSCKASGGTFGSSSISWVRQAPGQGLEWMGRIIPVLGIPSYAQNLQGRVTITADKSTSTAYMELSSLRSQDTAVYFCAREVGYSDYGSNYYFDLWGRGTLVTVS
chain 2: QSVLTQPPSVSGAPGQRVTISCTGSNSNIGAGYDVHWYQQLPGTAPKLLIYRNNIRPSGVPDRFSGSKSDTSASLAITGLQAEDEADYYCQSYDSSLSDSVFGGGTRLTVL
pseudovirus neutralization IC50 [1]: 0.0333 µg/mL | pseudovirus neutralization IC50 [2]: 0.596 µg/mL | pseudovirus neutralization IC50 [3]: 0.0629 µg/mL | ELISA binding EC50 [4]: 0.00637 µg/mL

B9: C5083 (protein)
chain 1: EVQLVESGGGLVKPGGSLRLSCVASGFSFRNAWMTWVRQAPGKGLEWVGRINTETEGGTADYAAPVKGRFTISRDESENTLYLQMSSLKIEDTAVYYCSTSDLLHYYDYGMDVWGQGTTVTVSS
chain 2: DIQMTQSPSTLSASVGDRVTITCRASQSVSSWLAWYQQKPGKAPKLLIYKASSLQSGVPSRFSGSGSGTEFTLTISSLQPDDFATYYCQQYDTYWWTFGQGTKVEIK
pseudovirus neutralization IC50 [1]: > 1 µg/mL | pseudovirus neutralization IC50 [2]: > 1 µg/mL | pseudovirus neutralization IC50 [3]: > 1 µg/mL | ELISA binding EC50 [4]: 0.00399 µg/mL

B10: C5084 (protein)
chain 1: QVQLVQSGAEVKKPGASVKVSCQASGYSFSNQYMHWVRQAPGQGLEWMGIINPSAGSVTYAQKFQGRVTMTSDTSTSTVYMELSSLRSEDTAVYYCARDWGFIPSNNWLDPWGQGTLVTVSS
chain 2: EIVLTQSPATLSLSPGERATLSCRASQSVSSYLAWYQQKPGQAPRLLIYDASKRATGIPARFSGSGSGTDFTLTISSLEPEDFAVYYCQQRSNWPPMYTFGQGTKLEIK
pseudovirus neutralization IC50 [1]: > 1 µg/mL | pseudovirus neutralization IC50 [2]: > 1 µg/mL | pseudovirus neutralization IC50 [3]: > 1 µg/mL | ELISA binding EC50 [4]: 0.00822 µg/mL

B11: C5085 (protein)
chain 1: QVQLVQSGAEVKKPGSSVKVSCKASGGTFSNYPISWVRQAPGQGLEWMGGIIPMFDAPRYAEKFQGRVTITADESTSTAYMELSSLRSEDTAVYYCARDVSSVTVVVSGPYKAAWTGYGMDVWGQGTTVTVSS
chain 2: DIVMTQSPLSLPVTPGEPASISCRSSQSLLHGNGYNYLSWYLQKPGQSPQLLIYLGSNRASGVRDRFSGSGSGTDFTLKISRVEAEDVGVYYCMQTLQTPRTFGQGTKLEIK
pseudovirus neutralization IC50 [1]: > 1 µg/mL | pseudovirus neutralization IC50 [2]: > 1 µg/mL | pseudovirus neutralization IC50 [3]: > 1 µg/mL | ELISA binding EC50 [4]: 0.00734 µg/mL

B12: C5086 (protein)
chain 1: EVQLVESGGGFIQPGGSLRLSCAASGLTVSSNYMNWVRQAPGKDLEWVSVMYAGGSTFYSESVKGRFTISRDNSKNTLYLQINSLRAEDTAVYYCARSIADDAFDVWGQGTMVTVSS
chain 2: DIQLTQSPSFLSASVGDRVTITCRASQGINSYLAWYQQKPGKAPKLLIYTASTLQSGVPSRFSGSGSGTEFTLTISSLQPEDFATYYCQQLSTYPGFTFGPGTKVDIK
pseudovirus neutralization IC50 [1]: > 1 µg/mL | pseudovirus neutralization IC50 [2]: > 1 µg/mL | pseudovirus neutralization IC50 [3]: 0.00251 µg/mL | ELISA binding EC50 [4]: 0.00348 µg/mL

B13: C5087 (protein)
chain 1: QVQLVQSGAEVKKPGSSVKVSCKASGDTFSSFAINWVRQAPGQGLEWMGRMFPMLGVATYAQGFKDRVTITADKSTSTVYMDLSSLRSEDTAVYYCARGMVAATPHYFDFWGQGTLVTVSS
chain 2: EIVMTQSPDTLSVSPGERATLSCRASQSVTSNLAWYQQRPGQAPRLLIYGASTRATGVPARFSGSGSGTEFVLTISSLQSEDFAIYYCQQYDNWLTFGGGTKVEI
pseudovirus neutralization IC50 [1]: 0.148 µg/mL | pseudovirus neutralization IC50 [2]: > 1 µg/mL | pseudovirus neutralization IC50 [3]: 0.000676 µg/mL | ELISA binding EC50 [4]: 0.00278 µg/mL

B14: C5088 (protein)
chain 1: QVQLVESGGGVVQPGRSLRLSCAASGFSFSHYGMHWVRQAPGKGLEWVAFIWFDGSKNKYVDSVKGRFTISRDNSKNTVYLQMNSLRAEDTAVYYCATGELELGQTYFDYWGQGTLVTVSS
chain 2: DIQMTQSPSSVSASVEDRVTISCRASQSISTWLAWYQQKPGKAPKLLIYAASTLQSGVPSRFSGSGSGTDFTLTISSLQPEDFATYFCQQASDLFTFGPGTKVDIK
pseudovirus neutralization IC50 [1]: 0.0507 µg/mL | pseudovirus neutralization IC50 [2]: 0.0522 µg/mL | pseudovirus neutralization IC50 [3]: 0.0269 µg/mL | ELISA binding EC50 [4]: 0.00279 µg/mL

B15: C5089 (protein)
chain 1: QVQLQQWGAGLLKPSETLSLTCAVHGGSLSGYYWSWIRQPPGQGLEWIGEINHSGRDNYNSSLKSRVTMSVDMSKNQLSLELSSVTAADTAVYYCARGTYYYDSSAFGVNWFDPWGQGTLVTVSS
chain 2: QSVLTQPPSVSGAPGQRVTISCTGSSSNLGAGYDVHWYQQLPGTAPKLLIYINNNRPSGVPDRFSGSKSGTSASLAITGLQAEDEADYYCQSYDTSVFAYVFGSGTKVTVL
pseudovirus neutralization IC50 [1]: > 1 µg/mL | pseudovirus neutralization IC50 [2]: > 1 µg/mL | pseudovirus neutralization IC50 [3]: > 1 µg/mL | ELISA binding EC50 [4]: 0.00454 µg/mL
